# Measured values: publication PMC4336329 (PLoS ONE, 2015)
# The campaign covered roughly 310,000 compounds. About 2,200 (0.71%) showed an effect of 50% or more. Effects have a minus sign here. The list shows a part of the results.
# Molecular target: human ether-à-go-go-related gene (hERG) potassium channel (human, UniProt Q12809)
# Assay: primary screen, population patch clamp on CHO cells stably expressing hERG
# human ether-à-go-go-related gene (hERG) potassium channel, sequence (Q12809 whole entry, looked up): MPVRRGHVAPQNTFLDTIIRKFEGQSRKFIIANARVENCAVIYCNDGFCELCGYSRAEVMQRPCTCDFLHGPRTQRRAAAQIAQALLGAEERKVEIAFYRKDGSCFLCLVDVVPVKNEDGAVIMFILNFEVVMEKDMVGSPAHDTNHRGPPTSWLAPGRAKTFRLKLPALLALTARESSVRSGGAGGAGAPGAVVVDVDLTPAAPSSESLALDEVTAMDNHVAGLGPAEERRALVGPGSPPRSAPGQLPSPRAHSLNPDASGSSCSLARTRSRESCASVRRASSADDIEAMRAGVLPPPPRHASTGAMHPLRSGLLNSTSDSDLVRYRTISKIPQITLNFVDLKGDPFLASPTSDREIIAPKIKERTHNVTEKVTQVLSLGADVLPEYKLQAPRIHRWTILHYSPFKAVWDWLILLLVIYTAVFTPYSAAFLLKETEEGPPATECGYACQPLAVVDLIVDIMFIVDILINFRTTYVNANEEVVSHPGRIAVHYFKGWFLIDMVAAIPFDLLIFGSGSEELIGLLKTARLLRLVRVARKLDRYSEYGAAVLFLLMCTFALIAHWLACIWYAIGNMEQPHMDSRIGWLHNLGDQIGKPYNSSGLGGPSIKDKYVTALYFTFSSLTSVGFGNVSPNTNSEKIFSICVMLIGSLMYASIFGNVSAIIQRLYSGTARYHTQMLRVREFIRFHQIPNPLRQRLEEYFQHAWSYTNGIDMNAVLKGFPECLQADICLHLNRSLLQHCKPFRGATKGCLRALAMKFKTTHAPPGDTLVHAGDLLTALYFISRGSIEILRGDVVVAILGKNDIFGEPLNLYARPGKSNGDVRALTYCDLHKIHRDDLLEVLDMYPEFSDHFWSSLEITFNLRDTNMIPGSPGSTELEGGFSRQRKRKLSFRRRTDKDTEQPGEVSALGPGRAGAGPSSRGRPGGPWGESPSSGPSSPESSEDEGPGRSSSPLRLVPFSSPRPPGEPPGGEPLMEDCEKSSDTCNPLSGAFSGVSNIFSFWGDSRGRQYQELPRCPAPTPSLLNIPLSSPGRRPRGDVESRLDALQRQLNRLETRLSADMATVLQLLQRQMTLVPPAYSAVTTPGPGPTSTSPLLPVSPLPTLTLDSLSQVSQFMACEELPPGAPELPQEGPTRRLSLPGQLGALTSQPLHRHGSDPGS
row,Compound,"hERG current change (%, negative = inhibition) at 1uM [%]"
1,Cc1ccc(/C=N/Nc2nnc(Cl)c3ccccc23)cc1,-1.46
2,O=C(Nc1ccc(N2CCCCC2)cc1)c1cccnc1,4.84
3,N#Cc1cn(-c2ccccc2)nc1C(=O)c1ccccc1,-3
4,Cc1ccc(S(=O)(=O)N2CCC(C(=O)NCc3ccccc3Cl)CC2)cc1,3.46
5,C=C(C)Cn1c(N2CCCC2)nc2c1c(=O)n(C)c(=O)n2C,15.7
6,Cc1c(Cl)cccc1NC(=O)CNC(=O)C1CC(=O)N(CCc2ccccc2)C1 (stereo not drawn),8.56
7,O=C(OCc1ccc([N+](=O)[O-])cc1)c1ccc(N2CCCC2)c([N+](=O)[O-])c1,1.62
8,Cc1ccc(N2C(=O)NC(=O)C3(Cc4ccccc4N4CCCC43)C2=O)cc1 (stereo not drawn),-3.63
9,O=C(O)c1ccccc1C(=O)NNc1cccc(Cl)n1,11.5
10,Cc1cc(C)cc(OCC(=O)NCCc2nc3ccccc3[nH]2)c1,-9.57
11,COc1ccccc1CNC(=O)c1[nH]c(C)c(C(C)=O)c1C,18.8
12,O=C(COc1ccccc1)Nc1ccc(S(=O)(=O)N2CCCC2)cc1,8.48
13,O=C(COc1ccc(F)cc1)Nc1ccc(-n2cnnn2)cc1,-27.2
14,CCOC(=O)NC1(C(F)(F)F)N=C(c2ccccc2)NC1=O (stereo not drawn),10.9
15,O=C1C=C(O)CC(c2ccc(Cl)c(Cl)c2)C1 (stereo not drawn),-15
16,N/C(=N\OC(=O)CCCN1C(=O)c2ccccc2C1=O)c1ccccn1,14
17,COc1ccc(-c2ccc(-c3nc4ccc(C)cn4c3NC3CCCCC3)cc2OC)cc1.O=C(O)C(F)(F)F,13.2
18,COc1ccccc1CNC(=O)CCNS(=O)(=O)c1ccc2c(c1)CC(C)N2C(C)=O (stereo not drawn),25.6
19,CCCc1nnc(SCC(=O)O)n1CC,6.9
20,CC(=O)N1CCc2cc(S(=O)(=O)CCC(=O)N3CCC(C)CC3)ccc21,15.5
21,Cn1nnnc1SCc1nc2scc(-c3ccccc3)c2c(=O)[nH]1,13.9
22,Cc1cc(C(=O)NNC(=O)c2cccc(C(F)(F)F)c2)no1,11.5
23,CN(C)CCCN(C(=O)c1ccc(S(=O)(=O)N2CCOCC2)cc1)c1nc2cc3c(cc2s1)OCO3.Cl,-21.5

row,Compound,"hERG current change (%, negative = inhibition) at 1uM [%]"
1,COc1ccccc1C(=O)Nc1ccccc1SC,0.922
2,CC1CC(=O)C2=C(C1)Nc1nc3ccccc3n1C2c1cccnc1 (stereo not drawn),-8.22
3,CN(C)c1ccc(/C=C(\NC(=O)c2ccccc2)C(=O)NCCCn2ccnc2)cc1,9.45
4,CC(Oc1cc2oc(=O)c3c(c2cc1Cl)CCCC3)C(=O)NCC1CCC(C(=O)O)CC1 (stereo not drawn),14
5,Cc1ccc(OC(=O)c2sc(Cl)nc2C)cc1C,2.33
6,CN(C)c1ccc(NC(=O)CCN2CCN(c3ccccn3)CC2)cc1,17.9
7,Cc1ccc(NS(=O)(=O)c2ccc(-n3cccn3)cc2)c(C)c1,16.4
8,Cc1ccccc1CC(=O)NCc1cccnc1,11.7
9,CCOC(=O)/C(=N\Nc1ccccc1Cl)N1CC(C)OC(C)C1 (stereo not drawn),14.5
10,CCOC(=O)C1=C(COC(=O)/C=C/c2ccc(OCC)c(OC)c2)NC(=O)NC1C (stereo not drawn),14.8
11,N#Cc1cn(CC(=O)NCCc2c[nH]c3ccccc23)c2ccccc12,9.33
12,Cc1ccc(-c2nc(CN(C)C(C3CC3)C3CC3)c(C)o2)cc1,-10.7
13,O=C(Nc1cccc(C(F)(F)F)c1)C1(c2ccccc2)CC1,7.82
14,Cc1ccccc1OCC(=O)Nc1nnc(-c2ccco2)s1,2.15
15,O=C(CSc1nc2[nH]ncc2c(=O)[nH]1)Nc1ccc(Cl)cc1,6.52
16,O=C(Nc1c(F)cc(F)cc1Br)c1cc(-c2ccccc2)on1,16.4
17,CC(=O)Nc1ccc(NC(=O)C2CCN(S(=O)(=O)c3ccc4c(c3)OCCO4)CC2)cc1,13.7
18,CCOc1cc(C2NC(=O)NC(C)=C2C(C)=O)cc(Cl)c1OCC(=O)O (stereo not drawn),7.05
19,Cc1nn(S(=O)(=O)c2ccc(F)cc2)c(C)c1S(=O)(=O)N1CCOCC1,13.9
20,CC(C)NCC(O)Cn1c2c(c3ccccc31)CCc1c-2cnn1-c1ccccc1 (stereo not drawn),0.912
21,O=C(c1ccco1)N(c1ccccn1)c1ccccn1,5.08
22,COc1cc(CN2CCC(n3nccc3NC(=O)CCCc3ccccc3)CC2)ccc1F,9.25
23,O=C1CC(c2cccc(Oc3ccccc3)c2)NC(=O)N1 (stereo not drawn),12.3

row,Compound,"hERG current change (%, negative = inhibition) at 1uM [%]"
1,O=C1NC(=Nc2ccc(O)cc2)S/C1=C\C=C\c1ccco1,8.07
2,Cc1cccc(-c2nc3cc([N+](=O)[O-])ccc3o2)c1,4.41
3,CN(C)S(=O)(=O)c1ccc(NC(=O)COC(=O)Cn2[nH]c(=O)c3ccccc3c2=O)cc1,16.9
4,CC1CCC(NC(=O)c2cc(S(=O)(=O)N3CCCCC3)ccc2N2CCOCC2)CC1 (stereo not drawn),-6.04
5,COc1ccc2cc(/C(C)=N/NC(=O)c3cc(-c4cccnc4)nc4ccccc34)ccc2c1,4.54
6,N#CN(Cc1ccccc1)Cc1ccccc1,-13.1
7,Fc1ccc(-c2csc(N3CCC(c4ccccc4)C3)n2)cc1 (stereo not drawn),-8.87
8,N#CCC(=O)Nc1ccc(C(=O)NCCc2c[nH]c3ccccc23)cc1,14.9
9,CC(=O)c1ccc(NC(=S)NCc2ccc(Cl)cc2Cl)cc1,12.6
10,CC1CN(S(=O)(=O)c2cccc(C(=O)Nc3ccccc3N3CCCCC3)c2)CC(C)O1 (stereo not drawn),14
11,Cc1ccc(C)c(OC(=O)CN2C(=O)c3ccccc3C2=O)c1,14.7
12,O=C(CSc1nc2c(c(C(F)(F)F)n1)CCc1ccccc1-2)NCc1ccc(F)cc1,17.3
13,CCCCC(CCC(=O)O)(C(=O)OCC)c1csc(N)n1 (stereo not drawn),8.87
14,S=c1[nH]nc(-c2ccco2)n1Cc1ccccc1,11.7
15,COCc1c(C(=O)N/N=C(/C)c2ccccc2)nnn1-c1nonc1N,9
16,Cc1ccc2c(c1)sc1nc(=O)n(-c3cccc(Cl)c3)c(=O)n12,3.35
17,CN(C)C(CNc1ncnc2sccc12)c1cccs1 (stereo not drawn),4.86
18,O=c1[nH][nH]cc1C=NCc1cccnc1,6.48
19,CCOc1cc(C)cc2oc(=O)cc(-c3ccccc3)c12,8.74
20,O=C(CN1C(=O)NC2(CCCCCC2)C1=O)c1ccc(F)cc1,-2.49
21,CCCOc1ccc(S(=O)(=O)NNC(=O)c2cc3ccccc3o2)cc1,12
22,Cc1ccc2nc(NCCc3ccc(Cl)cc3)c3nncn3c2c1,9.2
23,CC(C)c1nc2ccc(Br)cn2c1NC1CCCC1,13.7

row,Compound,"hERG current change (%, negative = inhibition) at 1uM [%]"
1,O=C(NC1CCCCC1)c1noc2c1CCCCC2,-3.07
2,CCNS(=O)(=O)c1ccc(CCC(=O)NCc2ccncc2)cc1,7.13
3,Cc1ccc(S(=O)(=O)N2CC(=O)NC(=O)C2)cc1,7.99
4,O=C(COc1ccc(/C=N/NS(=O)(=O)c2ccccc2)cc1)Nc1ccc(F)cc1,-6.19
5,CCc1ccc(C(=O)N/N=C(\C)c2ccncc2)s1,2.94
6,COc1ccccc1NC(=O)CN1C(=O)CSC(C)C1=O (stereo not drawn),21
7,CCC(=O)N1CCN(c2ccc(Cl)cc2NC(=O)c2ccc3c(c2)OCCO3)CC1,-19.3
8,CN(Cc1ccccc1Cl)C(=O)c1cc2ccccc2o1,16.4
9,CCOC(=O)/C=C1\SCC(=O)N1CC(=O)Nc1ccc2c(c1)CCC2,10.7
10,CN(c1ccccc1)S(=O)(=O)c1cccc(C(=O)NCc2ccccc2CN2CCCC2)c1,-33.8
11,O=c1[nH]c2ccc(Cl)cc2c(-c2ccccc2)c1N1CCOCC1,7.57
12,O=c1[nH]cc(COCC(F)(F)C(F)(F)C(F)(F)F)c(=O)[nH]1,10.7
13,CCNC(=O)NC(=O)CSc1ccc(S(=O)(=O)N(C)C2CCCCC2)cn1,-12.5
14,CN(C)S(=O)(=O)c1ccc(C(=O)Nc2ccc3ncccc3c2)cc1,21
15,c1ccc(CCc2nn3c(-c4ccncc4)nnc3s2)cc1,-9.59
16,Cc1ccc(C(=O)C2=C(O)C(=O)N(Cc3ccco3)C2c2cccc(Cl)c2)o1 (stereo not drawn),15
17,Cn1cccc1/C=N/NC(=O)Cc1ccccc1,12.4
18,O=C(COC(=O)/C=C/c1ccc(OC(F)F)cc1)NC1CCCC1,11.8
19,Nc1cc(=O)[nH]c(SCC(=O)NC2CCCc3ccccc32)n1 (stereo not drawn),11.8
20,CC(O)CNCCNCc1c(OCc2ccccc2)ccc2ccccc12.Cl (stereo not drawn),-3.64
21,Cc1nc(SCC(=O)Nc2c(C)n(C)n(-c3ccccc3)c2=O)[nH]c(=O)c1Cc1ccccc1,11.5
